# Experimental data taken from article PMC4336329 (PLoS ONE, 2015).
# Hit rate of the full screen: of about 310,000 compounds, about 2,200 (0.71%) showed an effect of 50% or more. The effect is printed as a negative number. The list shows a part of the results.
# Target: human ether-à-go-go-related gene (hERG) potassium channel (human, UniProt Q12809)
# Experiment: primary screen, population patch clamp on CHO cells stably expressing hERG
# Chain of human ether-à-go-go-related gene (hERG) potassium channel (Q12809 whole entry, looked up): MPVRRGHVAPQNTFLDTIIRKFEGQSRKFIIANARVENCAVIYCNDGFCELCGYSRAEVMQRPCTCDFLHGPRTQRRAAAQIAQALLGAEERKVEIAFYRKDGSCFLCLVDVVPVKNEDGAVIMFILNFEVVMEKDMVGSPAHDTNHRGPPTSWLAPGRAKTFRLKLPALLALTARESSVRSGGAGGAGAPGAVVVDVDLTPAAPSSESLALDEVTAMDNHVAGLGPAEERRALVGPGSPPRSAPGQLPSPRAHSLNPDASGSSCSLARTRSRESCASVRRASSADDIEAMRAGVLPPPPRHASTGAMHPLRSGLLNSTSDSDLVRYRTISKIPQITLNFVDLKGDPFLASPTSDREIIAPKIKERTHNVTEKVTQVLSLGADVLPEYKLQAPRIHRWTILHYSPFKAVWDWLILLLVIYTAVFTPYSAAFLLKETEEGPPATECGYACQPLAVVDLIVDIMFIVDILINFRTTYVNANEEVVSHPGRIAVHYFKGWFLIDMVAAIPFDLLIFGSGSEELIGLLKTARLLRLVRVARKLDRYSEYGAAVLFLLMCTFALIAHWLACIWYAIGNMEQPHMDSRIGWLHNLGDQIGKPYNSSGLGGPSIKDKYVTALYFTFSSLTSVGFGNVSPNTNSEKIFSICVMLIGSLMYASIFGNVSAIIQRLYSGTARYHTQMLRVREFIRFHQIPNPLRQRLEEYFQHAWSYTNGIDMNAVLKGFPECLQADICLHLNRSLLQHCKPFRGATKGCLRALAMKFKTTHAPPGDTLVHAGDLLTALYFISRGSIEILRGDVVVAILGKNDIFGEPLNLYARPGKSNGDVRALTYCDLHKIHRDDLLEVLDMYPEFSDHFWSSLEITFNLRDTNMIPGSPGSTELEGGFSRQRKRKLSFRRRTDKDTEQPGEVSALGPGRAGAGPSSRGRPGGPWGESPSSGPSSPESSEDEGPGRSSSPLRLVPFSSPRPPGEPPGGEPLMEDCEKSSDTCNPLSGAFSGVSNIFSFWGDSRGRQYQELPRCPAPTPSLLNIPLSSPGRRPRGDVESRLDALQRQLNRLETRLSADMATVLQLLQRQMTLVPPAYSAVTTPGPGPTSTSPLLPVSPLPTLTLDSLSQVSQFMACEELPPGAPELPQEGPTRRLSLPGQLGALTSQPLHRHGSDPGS
row,Structure (SMILES),"hERG current change (%, negative = inhibition) at 1uM [%]"
1,Cl.OC(CNCc1cccc(Br)c1)c1ccccc1 (stereo not shown),-16.7
2,Cc1ccc(C(=O)NN(C)c2nc3ccccc3nc2C(F)(F)F)cc1,8.23
3,COc1ccc(/C=C/C(=O)NCC(c2ccc(F)cc2)N2CCOCC2)cc1OC (stereo not shown),9.02
4,COC(=O)CNC(c1ccccc1)c1cc(Br)ccc1NC(=O)CCN1CCOCC1 (stereo not shown),-2.25
5,O=C1Cc2ccccc2C(=O)N1c1ccccc1,5.39
6,Nn1c(=O)c2ccccc2n2c(SCc3ccccc3)nnc12,-15.8
7,CCC1=C2CC[C@H]3C(=O)NC(=O)[C@H]3[C@H]2[C@@]2(Cc3ccccc3)C(=NCC(=O)OC)OC(=O)N2C1=O,11.5
8,CCN(CC)C(=O)CSc1nc2cc3c(cc2c(=O)n1Cc1ccc(OC)cc1)OCO3,7.98
9,COc1ccccc1CCNC(=O)c1cnn2c(C(F)F)cc(C)nc12,1.73
10,COc1cccc(/C=N/NC(=O)CN2CC(c3ccccc3)CC2=O)c1OC (stereo not shown),5.33
11,O=C(O)CCC(=O)/C=C/c1ccccc1,-2.05
12,Cc1ccc(NC(=O)C2CCN(C(=O)[C@@H]3Cc4ccccc4CN3)CC2)c(C)c1,-3.96
13,NC(=O)CN1C(=O)C(O)(CC(=O)c2ccccc2O)c2ccccc21 (stereo not shown),6.9
14,Cl.OCCN(CCO)c1nc(-c2ccccc2)nc2c1oc1ccccc12,12.6
15,CCOC(=O)c1cc(-c2ccco2)nc2c1c(C)nn2-c1cccc(Cl)c1,10.9
16,O=C(Oc1cccnc1)c1ccc([N+](=O)[O-])cc1Cl,0.363
17,CCc1ccc(NC2=NCCCS2)cc1,5.76
18,COC(=O)C1CC(O)CN1S(=O)(=O)c1cccs1 (stereo not shown),8.52
19,Cc1c(NC(=O)Nc2ccc(C#N)cc2)c(=O)n(-c2ccccc2)n1C,4.52
20,COC(=O)C1C(=O)NCC1c1ccc(OC)cc1 (stereo not shown),5.98
21,O=C(Cn1c(=O)n2ncnc2c2c3c(sc21)CCCC3)c1ccccc1,-6.45
22,O=C(Cc1cccs1)Nn1c(Cc2cccs2)nc2ccccc2c1=O,18.7
23,CN1C(C)(C)CC(=NOC(=O)c2ccccc2)CC1(C)C,-6.15
24,CC(C)(C)[C@@H]1C=C(C(=O)O)O[C@H](OCc2ccc(CO)cc2)C1,10.5
25,Cc1c(NC(=S)N/N=C/c2ccc(O)cc2)c(=O)n(-c2ccccc2)n1C,10.3
